The supplement of paper PMC10126150
Values marked as one replicate rest on one cluster of the flow cell; about a third of the high ones do not repeat.

Tested on: ATP
Experiment: switch fluorescence ratio, 500 uM ATP over buffer (Cy3 cluster intensity, sum of 5 cycles each) (fold (ratio)); higher = stronger signal-on switching upon ATP binding; sequences stand for … in TCGTCGGCAGCGTCAGATGTGTATAAGAGACAGTTTTTTTTTTTTTTTTTTTTTTTTT…TC
Conditions: aptamer strand: ATP DNA aptamer (quencher-CACCTGGGGGAGTATTGCGGAGGAAGG + anchor), 100 nM annealed; ATP concentration: 500 uM; one replicate
Outline: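 Switching-strand clusters labelled with Cy3 on a modified Illumina MiSeq flow-cell were annealed to 100 nM quencher-labelled ATP aptamer, imaged in selection buffer, and re-imaged after 15 min with 500 uM ATP at 22 °C. This was done over five cycles with NaOH stripping and re-annealing in between. The fluorescence ratio is summed target-cycle over summed buffer-cycle Cy3 intensity per cluster, averaged per switch-domain sequence, excluding clusters outside 100-1000 RFU.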
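Note: ATP exposure 15 min at 22 °C before imaging.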

| Sequence | switch fluorescence ratio |
| --- | --- |
| TTGCCGGCAC | 1.01 |
| TCAGTCTCCT | 1.02 |
| AGGGAGGATG | 0.968 |
| TGGTTTCTAT | 1.01 |
| GATCGGGTCG | 1.03 |
| TAATAAGAAG | 0.995 |
| CGCATATTCT | 3.17 |
| AAGTACCATA | 1.27 |
| CATCCTGTGT | 0.983 |
| ATGTGGTCCT | 1.01 |
| ATACTCTAGA | 1.06 |
| GCCTGTTCCG | 1.22 |
| TACTCCTGTA | 1.11 |
| ATTACGCTGC | 1.38 |
| CGGGATGGGT | 0.998 |
| GATGTAGCAG | 1.01 |
| AGAGTAAACA | 1.02 |
| GCCAATGGCG | 1.05 |
| GAGACGGGTA | 1.01 |
| AGAATCGCTT | 0.97 |
| GGATAGCATA | 0.991 |
| TCGCGGAGTC | 1.03 |
| CCATGTTCGC | 1.04 |

| Sequence | switch fluorescence ratio |
| --- | --- |
| AGCACGGAGT | 1.04 |
| GGGCTCTGT | 1.01 |
| GGCTAATTAT | 0.952 |
| CCATTTAACT | 0.987 |
| TGCACTTTTT | 1.05 |
| GGGTCTGGCG | 0.971 |
| ATCCTTGTAC | 1.12 |
| CCTTAGTAGC | 1.14 |
| TGGAACCACA | 1.05 |
| TCGCGGGGCC | 1 |
| GTGGCTCATA | 0.998 |
| CACTCATAAC | 1 |
| TCCCGATCTG | 1.01 |
| TCTGAATCAC | 1.08 |
| TCTTCCGTCG | 1.66 |
| CCGCCCGAGG | 1.06 |
| CAGTTGAAGT | 0.977 |
| TATGTGGTGG | 1.03 |
| CTCCACTTAT | 1.25 |
| AAAGTTGTGA | 0.991 |
| CGCGTGCCCA | 0.99 |
| CCGGTCGGGA | 0.98 |
| CCTCAGCTGG | 2.54 |

| Sequence | switch fluorescence ratio |
| --- | --- |
| GTTCTGGTGA | 0.999 |
| GAGTCCACCG | 0.955 |
| TAATGAGGGT | 1.01 |
| CTAACTTGCA | 1.01 |
| CTGTGGTTA | 0.972 |
| CCGAAGGGTC | 1.19 |
| TGCTTTCTGG | 0.969 |
| GTCCGTTGTG | 0.992 |
| ATTATCATTA | 0.964 |
| GAAGGTACAT | 0.937 |
| TGATAGTAAA | 0.985 |
| ACTATCTTTA | 1.04 |
| GCGGGCCCGT | 0.96 |
| CCAACACAGG | 1.94 |
| TCTTTAGAAC | 1.05 |
| TTCATCAATT | 1.02 |
| AATGGTAG | 0.972 |
| TAAACGGGCT | 0.999 |
| CTACCCGTA | 1.06 |
| AGACTGGGAT | 0.948 |
| CCGCGACAAA | 1.91 |
| CAACCATCTT | 1.34 |
| TGGCTGTCAG | 0.993 |

| Sequence | switch fluorescence ratio |
| --- | --- |
| CGCAGGTTCA | 1 |
| GCAGCTAGAG | 1.72 |
| CGCGGTTAAT | 1.01 |
| TGAGTTTCGA | 0.979 |
| TTTAGTGGGA | 1 |
| TTTAGCCGGA | 1.07 |
| GCGAAGGTTA | 0.991 |
| GGCCTCCATC | 1.06 |
| CGTATTCTG | 1.01 |
| TGCTTGGG | 1.01 |
| AGAATGCTAT | 1.04 |
| TTGCTCTAAG | 1.02 |
| ACCCTTAGTA | 1.03 |
| TAACTGTTAG | 0.999 |
| AGCTGTTCGC | 1.04 |
| AGGTCTACTT | 0.984 |
| GACGCTAGAG | 1.11 |
| CTCTGTATCT | 0.972 |
| ACGATCTTCC | 2.73 |
| TTAATAGGGT | 0.986 |
| CATGTCAAAC | 1.01 |
| GTCGGAAGCG | 1.03 |
| AGAAGTATTA | 1 |

| Sequence | switch fluorescence ratio |
| --- | --- |
| TGCTTCTGCG | 1.01 |
| GGCTTTATCA | 0.988 |
| CAAGACCAGG | 1.06 |
| GGAAATGGAG | 0.971 |
| CTCTTAGGAG | 0.963 |
| ATGCATCCA | 0.964 |
| CGCTTTTCTG | 1 |
| AATAGCATTT | 0.958 |
| GATAAATTCG | 1.03 |
| GCGATAGGAG | 1.19 |
| GGCGGAAGTG | 0.99 |
| CCGTCACGCG | 1.31 |
| ATACACCTCA | 1.11 |
| CATTCCCTT | 1 |
| CAAGGAAACC | 1.04 |
| TGGAAGATGC | 1.02 |
| AATCAAAAGT | 1 |
| TGCGAAAACG | 1.01 |
| CGGTCATACA | 1.04 |
| AGCAGGGTTA | 0.988 |
| AGCTATCGTT | 1.01 |
| CGGTTGGTGT | 0.979 |
| CATTAGGAGC | 1.04 |

| Sequence | switch fluorescence ratio |
| --- | --- |
| TCTAAGTTCG | 0.945 |
| ACTACTTACT | 1.28 |
| GAAGCAGTCA | 1.03 |
| AGACCCGACT | 1.08 |
| CTTCAGTGCC | 1.03 |
| CGCGCCCCCT | 2.46 |
| TCTTTTTTAT | 0.973 |
| TCGTTATCTA | 0.995 |
| ACTTTGTC | 0.999 |
| GACTGTTCCT | 1.06 |
| CTTGAGGCCT | 1.02 |
| TGAGCCTCTT | 0.983 |
| CAACTCCGTG | 1.13 |
| ATAACTGTTG | 0.987 |
| AACATTTAGG | 1.03 |
| GATGACGGGA | 0.984 |
| AACGATTGAA | 1 |
| CGCCACGAAA | 0.987 |
| TCGGTGTTCT | 0.982 |
| GGGCAATGGT | 1.22 |
| TTGAGTGAAG | 1.01 |
| GGTCGGCTCG | 0.929 |
| ATCCTGTTGG | 1.02 |

| Sequence | switch fluorescence ratio |
| --- | --- |
| GAATAGTCGT | 0.995 |
| CCTTTTTTGA | 0.995 |
| GACGTTCCTT | 0.989 |
| CGTTGAATTT | 0.956 |
| TTATTGTTCG | 0.937 |
| CACGACGTAG | 1.03 |
| TCATGGCGTC | 1 |
| AAACTCGGAA | 1.06 |
| CTAGAGCTCA | 0.989 |
| CCAACAAGTT | 1.01 |
| TCAACGATAA | 1.04 |
| GGTGCCTTAA | 0.991 |
| ATGGCGGAT | 1.09 |
| GACGTTTCTT | 0.95 |
| TCTGGTATTT | 1 |
| CGTGAATCGT | 0.947 |
| GATACAGGCG | 1.05 |
| TTTTAATATC | 1.01 |
| AATATGGTGC | 1.01 |
